Data on twelve compounds can be found in PMC10266789 (The Journal of Clinical Investigation, 2023).

Where two headings read alike, the source gives them in different places. Where only a bound is given, the exact number is not on record here.

For data set [1], the system named is HCMV (strain TB40/E). The settings on record: for IC50: read-out: HCMV IC50, Table 2, infected MRC-5 cell area at 7 dpi, n = 2; for reduction of infected cell area: Figure 4F.
Data set [2] concerns Zika virus (strain DAK41525). As to the kind of experiment: microbe, parasite or virus in culture. The settings on record: Fibroblast, read-out: IC50, Zika.
The test system of data set [3] is HCMV TB40/E-mCherry-UL99eGFP. As to the kind of experiment: HCMV treat-release-infect experiment, infected cell area. The data set is classed as cell-based, human cytomegalovirus.
A further data set concerns HCMV DNA. Kind of data set: Intracellular HCMV DNA accumulation by qPCR in MRC-5. Format: cell-based, human cytomegalovirus. The conditions noted are these: 72 hours; 3 IU/cell. A general note: In qPCR the cycle at which signal appears reflects the starting amount.
Data set [4] deals with HCMV TB40/E-mCherry-UL99eGFP. As to the kind of experiment: HCMV virus yield at 72 hpi by TCID50 (3 IU/cell). The data set is classed as cell-based, human cytomegalovirus. The settings on record: Figure 8C.
The subject of data set [5] is HCMV TB40/E. Kind of data set: Human lung-only mouse model of HCMV infection. Format: in vivo, lung-only mice (NSG). The settings on record: day 17; TCID50; FLS-359 50 mg/kg p.o. b.i.d.; ganciclovir 100 mg/kg i.p. daily; P < 0.04.
Data set [6] concerns HCMV (strain TB40/E). As to the kind of experiment: microbe, parasite or virus in culture. The settings on record: for EC90: Human betaherpesvirus 5, MRC5, read-out: approximate EC90 against HCMV.
The subject of data set [7] is Epstein-Barr virus (EBV; strain Akata). Kind of data set: microbe, parasite or virus in culture. The settings on record: human gammaherpesvirus 4, Akata, read-out: IC50, Epstein-Barr.
For data set [8], the system named is HCMV TB40/E-mCherry-UL99eGFP. As to the kind of experiment: HCMV treat-release experiment, TCID50 of culture medium. The settings on record: 96 h infection with drug (0.5 IU/cell), washout, monitored 96 h.
The test system of data set [9] is HCMV TB40/E-mCherry-UL99eGFP. The settings on record: Human betaherpesvirus 5, read-out: HCMV virus yield IC50.
Data set [10] relates to HCMV TB40/E-mCherry-UL99eGFP. Kind of data set: HCMV delayed treatment protocol, infected cell area in MRC-5. The settings on record: for IC50: Human betaherpesvirus 5, MRC5, 120 h, 5 days of treatment.
Data set [11] concerns Epstein-Barr virus (EBV; strain Akata). The conditions noted are these: PAA; 24 hours after anti-IgG; stimulated control 30%.
The test system of data set [12] is SARS-CoV-2 (strain USA-WA1/2020). As to the kind of experiment: microbe, parasite or virus in culture. The settings on record: Severe acute respiratory syndrome coronavirus 2, Calu-3, in Homo sapiens, read-out: IC50, SARS-CoV-2.
The test system of data set [13] is Betacoronavirus 1 (strain OC43). Kind of data set: microbe, parasite or virus in culture. The settings on record: Betacoronavirus 1, OC43, MRC5, read-out: IC50, HCoV-OC43.
The subject of data set [14] is Influenza A (strain A/California/07/2009). The conditions noted are these: human dNHBE.
Data set [15] has as its system Hepatitis B virus (genotype D, subtype ayw). As to the kind of experiment: microbe, parasite or virus in culture. The conditions noted are these: Hepatocyte, read-out: IC50, Hepatitis B.
Data set [16] can be described thus: Residual drug levels in MRC-5 cells and supernatant after washout, mass spectrometry. The conditions noted are these: LMV 0.05 µM, 24 h. Format: in vitro ADME, human. How it is done:
Supplemental Figure 8. […] (A) Uninfected cells
After 24h, supernatant was collected, monolayers were washed 3x to remove drug and cells were replenished with drug-free media.
Supernatants and cells were then assayed for residual drug levels at 2, 24 or 72h post-release. (B-C) Supernatant and cell-associated drug concentrations were determined by mass spectrometry. (D) […]
monolayer of MRC-5 cells. Sampling of the supernatant was conducted after a 24h incubation at 37°C, followed by 3X washes with PBS, collection of the final wash, and replenishment of drug-free medium to the dishes. Supernatant samples were then collected at 24 and 72h post drug-removal. […]
concentrations as determined by mass spectrometry. Mean +/- SD is shown (n=3).
(1 picture or pasted object on this page, not shown here)

Data set [17] concerns HCMV TB40/E. Kind of data set: Mouse gelfoam-fibroblast model of HCMV infection. Format: in vivo, CIEA NOG mice. The settings on record: day 11; TCID50; FLS-359 50 mg/kg p.o. b.i.d.; valganciclovir 50 mg/kg p.o. daily; P < 0.03.
The mark [18] stands for this setting: Human betaherpesvirus 5, MRC5, read-out: HCMV spread IC50, Figure 4F, 0.01 IU/cell, mCherry infected cell area at 7 dpi, mean ± SD, n = 4.
Where [19] appears, read: read-out: IC50, infected cell area, drug added at 0 hpi, 0.1 IU/cell.
Setting [20] is: read-out: IC50, infected cell area, drug added at 24 hpi.
[21] abbreviates: read-out: IC50, infected cell area, drug added at 48 hpi.
Setting [22] is: read-out: IC50, infected cell area, drug added at 72 hpi.
[23] abbreviates: read-out: IC50, infected cell area, drug added at 96 hpi.

Regarding `N#C/C(=C\c1ccc(-c2cc(Cl)ccc2Cl)o1)C(=O)Nc1cccc2ncccc12` [AGK2], the IC50 (as a rule, the concentration needed to halve the response being measured) with HCMV (strain TB40/E) [1] worked out at 3400 nM. The half-maximal cytotoxic concentration (CC50) – broadly, the concentration that lowers cell viability or growth by half – in the data set on MRC-5 cells is more than 100000 nM.

Take `O=C(Nc1cccc(Br)c1)c1cccc(S(=O)(=O)N2CCCCCC2)c1` [AK-7]: the IC50 in the data set with HCMV (strain TB40/E) [1] was 8200 nM. The CC50 in the data set on MRC-5 cells was more than 25000 nM.

With `CCN(CC)Cc1cc(Nc2ccnc3cc(Cl)ccc23)ccc1O` [Amodiaquine, reference compound], in [2], the IC50 came to 2800 nM.

As to `Nc1nc(O)c2ncn(COC(CO)CO)c2n1` [Ganciclovir, ganciclovir], in data set [3] (24-hour pretreatment, 72-hour washout, then infection), the “activity in pretreatment regimen” value is listed as “had no activity”. The “activity when readministered at the time of infection” value in data set [3] (control experiment) is on record as “both drugs were active”. Besides, in the data set with HCMV DNA, the “intracellular viral DNA accumulation” value was “inhibited intracellular viral DNA accumulation”. In [4], the “production of infectious virus” value was “reduced virus yield to a more limited extent”. The “production of infectious HCMV progeny in human lung implants” value in the data set with HCMV TB40/E [5] is “significantly reduced the production of infectious HCMV progeny”. For the same compound, the “reduction of infected cell area” value with HCMV (strain TB40/E) [1] came to 33 fold. For the same compound, the IC50 in the data set with HCMV (strain TB40/E) [6] (Human betaherpesvirus 5, MRC5, in Homo sapiens, read-out: IC50, HCMV, human MRC-5, Table 1) amounted to 2700 nM; with HCMV (strain TB40/E) [6] (setting [18]), 1700 nM; in [7], 43000 nM; in [9], 1200 nM; in [10] (setting [19]) it was 2500 nM; in [10] (setting [20]) it was 2300 nM. Further, the IC50 in [10] (setting [21]) was 4100 nM; in data set [10] (setting [22]) it was 3600 nM; in [10] (setting [23]) it was 1400 nM. The EC90 – broadly, the point of the concentration-response curve where the effect stands at 90% – in the data set with HCMV (strain TB40/E) [6] was approximately 20000 nM. Also, the “time after release of drug block at which progeny virus was detectable” value in [8] stood at 48 h. Besides, the “Maximum Fold-Reduction in infected cell area” value in data set [10] (drug added at 0 hpi) came to 3.2; in [10] (drug added at 24 hpi), 4.5; in data set [10] (drug added at 48 hpi), 7.5; in data set [10] (drug added at 72 hpi), 1.9; in [10] (drug added at 96 hpi) it was 1.3.

Consider `O=C(O)CP(=O)(O)O` [PAA, phosphonoacetic acid, reference compound], for which, in data set [11], the “gp350+ Akata cells” value was “about 11%”.

Turning to `CCC(CC)COC(=O)[C@H](C)N[P@](=O)(OC[C@H]1O[C@@](C#N)(c2ccc3c(N)ncnn23)[C@H](O)[C@@H]1O)Oc1ccccc1` [Remdesivir, reference compound], the IC50 in data set [12] is 400 nM; in data set [13] it was 100 nM.

In the case of `NC(=O)c1ncn([C@@H]2O[C@H](CO)[C@@H](O)[C@H]2O)n1` [Ribavirin, reference compound], the “IC90, Influenza A (column headed IC50, footnote C: IC90)” value in data set [14] is given as 0.7^C μM.

Compound `Cc1cc(C)nc(SCC(=O)Nc2ncc(Cc3cccc4ccccc34)s2)n1` [SirReal2] gave a CC50 with MRC-5 cells of more than 20000 nM.

Consider `CCCCCCCCCCCCCC(=S)NCCCCC(NC(=O)OCc1ccccc1)C(=O)Nc1ccccc1` (stereo not drawn) [TM], for which the IC50 in the data set on HCMV (strain TB40/E) [1] worked out at 26000 nM. Besides, the CC50 with MRC-5 cells was 46300 nM.

As to `C[C@H](Cn1cnc2c(N)ncnc21)OCP(=O)(O)O` [Tenofovir, reference compound], the IC50 in [15] worked out at 30 nM.

For the compound `COc1cccc(N2CCN(C3=Nc4c(F)cccc4[C@H](CC(=O)O)N3c3cc(C(F)(F)F)ccc3OC)CC2)c1` [letermovir], in data set [16], the “removal of drug from supernatant and cells by washing” value is “effectively removed from supernatant and cells by washing”. For the same compound, in the data set with HCMV DNA, the “intracellular viral DNA accumulation” value is given as “did not have a significant effect on DNA accumulation”. In addition, in data set [4], the “production of infectious virus” value is reported as “reduced virus yield to a more limited extent”. In addition, the “reduction of infected cell area” value in the data set with HCMV (strain TB40/E) [1] came to 4 fold. Besides, the IC50 was 3 nM with HCMV (strain TB40/E) [6] (setting [18]); 2 nM in [9]; 4 nM in data set [10] (setting [19]); 4 nM in [10] (setting [20]); 5 nM in data set [10] (setting [21]); 7 nM in data set [10] (setting [22]). Further, the IC50 in data set [10] (setting [23]) was 2 nM. Moreover, the EC90 in the data set on HCMV (strain TB40/E) [6] is approximately 50 nM. Moreover, the “time after release of drug block at which progeny virus was detectable” value in [8] came to 24 h. For the same compound, the “Maximum Fold-Reduction in infected cell area” value in data set [10] (drug added at 0 hpi) was 2.0; in [10] (drug added at 24 hpi), 2.7; in data set [10] (drug added at 48 hpi), 3.7; in data set [10] (drug added at 72 hpi), 2.0; in data set [10] (drug added at 96 hpi) it was 1.3.

Consider `CC(C)[C@H](N)C(=O)OCC(CO)OCn1cnc2c(=O)nc(N)[nH]c21` (stereo partly drawn) [valganciclovir, reference compound], for which the “virus production in gelfoam implants” value in the data set on HCMV TB40/E [17] is recorded as “significantly reduced virus production”.
